Assay results from the supplement of paper PMC3334620.
In all, about 33,000 sequences were measured (“E-score (-0.5 to 0.5)”: median about -0.053, highest 2% from about 0.37 on). The list shows a part of the results.

Molecular target: Hap1 (UniProt P0CE41)
Assay: PBM E-score (8-mer binding enrichment) (E-score (-0.5 to 0.5)); higher = stronger / more preferred TF binding; most listed sequences are background and not binding sites
Settings: protein concentration: 200 nM; construct: GST-DNA-binding domain
Procedure, shortened: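 Each ungapped eight-base word and its reverse complement, pooled, received an E-score from the Universal PBM Analysis Suite. Underlying scans, normalised with masliner, recorded fluorescent anti-GST bound to GST-tagged yeast transcription factors. These were applied at about 100-200 nM to universal all-10-mer Agilent arrays double-stranded by primer extension.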

UniProt P0CE41, sequence (P0CE41 whole entry): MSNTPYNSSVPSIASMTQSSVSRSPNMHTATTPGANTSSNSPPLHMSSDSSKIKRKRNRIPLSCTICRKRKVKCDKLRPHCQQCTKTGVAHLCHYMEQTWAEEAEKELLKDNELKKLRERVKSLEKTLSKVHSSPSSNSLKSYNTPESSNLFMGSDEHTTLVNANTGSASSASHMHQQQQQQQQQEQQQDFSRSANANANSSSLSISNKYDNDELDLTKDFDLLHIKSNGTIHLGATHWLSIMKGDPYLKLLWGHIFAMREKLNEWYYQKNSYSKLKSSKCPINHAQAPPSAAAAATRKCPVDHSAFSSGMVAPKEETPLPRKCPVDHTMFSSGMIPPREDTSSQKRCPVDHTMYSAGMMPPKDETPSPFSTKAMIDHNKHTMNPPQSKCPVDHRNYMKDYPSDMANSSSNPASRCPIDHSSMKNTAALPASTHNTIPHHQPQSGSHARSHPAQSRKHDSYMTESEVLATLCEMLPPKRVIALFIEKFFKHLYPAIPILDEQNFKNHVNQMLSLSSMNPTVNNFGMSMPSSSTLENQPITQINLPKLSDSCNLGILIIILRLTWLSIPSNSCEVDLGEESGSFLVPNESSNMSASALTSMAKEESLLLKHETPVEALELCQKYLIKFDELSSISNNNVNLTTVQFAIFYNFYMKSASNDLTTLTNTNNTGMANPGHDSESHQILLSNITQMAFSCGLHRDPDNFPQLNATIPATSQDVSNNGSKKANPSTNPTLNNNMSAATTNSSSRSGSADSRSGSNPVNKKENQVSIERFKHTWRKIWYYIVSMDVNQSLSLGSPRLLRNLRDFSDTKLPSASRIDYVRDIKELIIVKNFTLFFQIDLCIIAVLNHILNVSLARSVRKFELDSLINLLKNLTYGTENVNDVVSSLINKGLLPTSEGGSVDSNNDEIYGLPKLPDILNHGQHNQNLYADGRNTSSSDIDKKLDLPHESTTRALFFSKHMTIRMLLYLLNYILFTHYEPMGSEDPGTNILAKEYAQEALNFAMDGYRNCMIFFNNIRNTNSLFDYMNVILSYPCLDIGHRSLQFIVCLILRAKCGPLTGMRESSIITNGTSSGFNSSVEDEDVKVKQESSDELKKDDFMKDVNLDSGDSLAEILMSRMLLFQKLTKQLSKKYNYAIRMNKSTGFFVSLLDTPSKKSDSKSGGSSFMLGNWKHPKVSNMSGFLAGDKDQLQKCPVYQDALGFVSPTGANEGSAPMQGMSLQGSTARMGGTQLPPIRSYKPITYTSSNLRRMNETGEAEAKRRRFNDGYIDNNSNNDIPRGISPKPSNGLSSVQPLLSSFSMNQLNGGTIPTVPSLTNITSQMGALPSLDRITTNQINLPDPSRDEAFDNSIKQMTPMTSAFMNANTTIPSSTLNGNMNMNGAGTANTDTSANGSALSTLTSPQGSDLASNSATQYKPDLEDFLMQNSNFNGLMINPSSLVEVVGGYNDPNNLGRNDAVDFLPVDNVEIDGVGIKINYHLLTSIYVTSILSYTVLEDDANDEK

Sequence | PBM E-score
GGATGGAA | -0.0393
ATCAGCAG | -0.0294
ACAGCGTC | 0.0618
AGGAGCCT | -0.239
CACTGGAG | -0.25
ACATCCGG | 0.427
GCTTGGGA | -0.149
CGGACGCC | 0.278
CATTTTCA | 0.0219
ACACTCCC | -0.0304
CAGGAATA | -0.0925
GGTCCGTA | 0.329
CCAAGTTA | -0.153
TTCCGAAA | 0.363
ATTTAATC | 0.153
CGGACCTA | 0.425
GGAATAAA | 0.154
GGGTCCAA | 0.15
ATCATAAA | -0.13
TAAGTACA | -0.0628
CTTAATTA | -0.0417
CAGACTAC | -0.287
CAACCTTA | -0.223
ATAGACTC | -0.252
GAGTAGCA | 0.0528

Sequence | PBM E-score
CAAGCCAA | -0.126
AGTACTGG | -0.129
ACATCGTA | 0.114
ATTAAAGA | -0.0953
TCGTTCCA | -0.28
ATGTTTGC | 0.031
ACATACGA | -0.0295
TCCGTGCA | 0.241
GTGATGGA | -0.0732
ACACAGCG | -0.0524
AGGCCTGG | -0.246
TAGTCCAA | -0.206
CGTTCCAC | -0.0202
CGCGTCGA | 0.147
ACAGCACG | 0.184
AAAGGCAC | 0.0891
CTAAAACC | 0.291
CGGCCTAG | 0.0646
ACGTACGT | -0.416
ACTACTCA | -0.0975
ACCGAGCG | 0.384
ATCATTTC | 0.0792
ATACAACG | 0.102
AGTACAAG | -0.0771
AACACCAA | -0.314

Sequence | PBM E-score
GATTGCCC | 0.0173
CGTTTGTC | -0.0136
CTAACCAC | -0.141
ACTGCTTC | 0.00237
AGGACTAG | -0.127
GATGCACC | 0.0309
CGGGGGCC | 0.246
CACTCTGC | -0.139
AGACTGAT | -0.159
GGTCGGTA | 0.166
CGTCAAGC | -0.0445
GTCCGTGA | 0.303
AATGTTCA | -0.0359
CAAGAAGG | -0.281
GTGGACCA | -0.0994
CGTCGCGA | 0.108
AACATGAC | -0.182
ACCTGGCT | -0.152
GAGTACGA | 0.0941
GCCATGGA | -0.175
TCGGCTCA | 0.184
GCAGTATA | 0.196
AGTCCATC | -0.027
TATCGGAA | 0.409
GTCGCTTA | 0.197

Sequence | PBM E-score
GTGCCCTA | -0.202
AATCCCAG | 0.0195
CTAGCGAC | -0.051
ATTTTATG | 0.0797
CTACGTGC | -0.232
CCAGTACG | -0.222
GCAGAAGA | -0.17
AGACATAA | -0.0377
CCGTATAG | -0.0396
GTCTTTAA | -0.163
ACATAGCA | -0.201
CTATTTAA | 0.117
ACTGCTCG | 0.166
TAGGAATA | -0.172
ATCGCGGG | 0.161
AGTCTGAG | -0.287
AGTTAAGG | -0.0377
GCGGGGAA | 0.167
CTGCCAAG | -0.328
AGAAAAAG | -0.0187
CCTTCCCG | -0.0195
GAAGGCCC | 0.0538
AGTCAGGA | -0.0121
AGGGAAGC | -0.0509
TCGAGAAA | -0.271

Sequence | PBM E-score
CCGAATGC | 0.34
TCCTAGCA | -0.232
TTCAAGAA | 0.00694
GGTTGTAA | -0.0507
CGGGCCGA | 0.379
TCACCCGA | 0.339
AGAGCAAT | -0.106
AAGAGCGG | 0.088
CACCTTTC | -0.14
GACATTGC | 0.0215
ATATTTAA | -0.105
ATGGTCCC | -0.131
CGGTACTC | 0.0806
GCATAAAC | -0.0213
CACTAAGA | -0.047
CGGGCCAA | 0.305
ATCCTGTC | 0.0425
ATAGCTCA | -0.0918
AACATAGT | 0.0275
AGCTGATA | -0.181
AAAAAGAC | -0.156
TCAGACGA | -0.201
CTAAGTAC | -0.0359
CACATCAC | -0.0631
AAGAGGAC | -0.23

Sequence | PBM E-score
CGGTGTCC | 0.271
ACTTTTTA | -0.0787
AAGATAAC | 0.0537
TGCCCTAA | -0.142
ACGTAGCT | -0.241
GCAGCGCC | 0.0452
ATCGTAAA | -0.127
GGCGTGTA | -0.0887
CTGGGTGA | -0.109
GCAACGCA | -0.0158
CGGTAAAC | 0.231
AAGGTGGA | 0.0544
AATGGCGC | 0.0448
ATCCTGAA | -0.0643
AGACATCG | -0.0272
CGATTACA | -0.0481
ATGCCAAA | -0.313
CACAGCAA | -0.0196
ACTGCTAT | -0.0795
CGACGTAA | -0.00721
CGACTCAA | 0.077
GTCCCCGA | 0.269
ACCGGTAT | 0.424
GCGCAAGC | -0.249
ACGCTTAA | -0.206

Sequence | PBM E-score
ACACCAGC | -0.188
TAGACTCA | -0.0382
ACTCGGTC | 0.301
TACCATCA | -0.403
CGCTTTGA | 0.0268
AGGGGACC | -0.133
ATAATAAA | 0.128
AACTCGCG | 0.0253
CTAATACC | 0.246
GCCTACTA | -0.141
ATTAGTTG | -0.0774
ACTAGTCC | 0.13
GGGTAAGA | -0.019
AAAAACCT | -0.0122
CTGCCCGA | 0.202
AGTATTAG | 0.0646
CGGTGACC | 0.0217
AGCAACCA | -0.0386
AAATCGGC | 0.303
GAACATTA | 0.0953
ATTGCCTG | -0.0963
AGGGCCTG | -0.316
CCATCACA | -0.19
CACGGATG | 0.179
AACTGATG | -0.187

Sequence | PBM E-score
AAAGGGTA | -0.0562
AAGCGCCC | 0.209
CGAGTCTA | -0.0832
TCAAATCA | -0.313
CAAGGGGA | -0.0784
CCGAGAGA | 0.309
CGGACAGC | 0.268
ACGCGCGA | 0.184
AACTCATA | -0.0429
AGTTATAT | 0.149
GTACGAAA | -0.161
ACTCTAGG | -0.2
GAACTATA | 0.0768
ACTCACCT | -0.328
AAAGAGCA | -0.118
GTTGCTCA | -0.185
GAGTTTCC | 0.0827
AGCGCCAA | -0.251
CGGGACAG | 0.221
GTTACCAA | -0.0436
ACAGAGTC | -0.167
GTGCCAGA | -0.198
CGGTATAC | 0.212
GGTATGCA | -0.166
GGCTCGAC | -0.105

Sequence | PBM E-score
GCCTCACC | -0.129
AGTGTAAA | -0.14
TATCTCGA | -0.0692
CAGTATGC | -0.125
CGCTTGGA | -0.0692
AAGGTTGC | -0.101
ATCGATGG | -0.145
AGAGGCCT | -0.258
AAATCTAA | -0.22
AGTTTTGA | -0.00825
ACTCTAAT | -0.132
GATCCTCC | -0.0188
GCAGCAAA | -0.179
ACTCCAAC | -0.0402
CGGGGGGC | 0.0983
GGGCCCAA | 0.0258
CACGTGTC | -0.228
GGGATTGA | -0.123
GTGTTTCA | -0.156
